Assay results published in article PMC4336329 (PLoS ONE, 2015).
In all, about 310,000 compounds went through this assay and about 2,200 (0.71%) showed an effect of 50% or more. Effects have a minus sign here. This is one part of the list.

Molecular target: human ether-à-go-go-related gene (hERG) potassium channel (human, UniProt Q12809)
Experiment: primary screen, population patch clamp on CHO cells stably expressing hERG

Chain of human ether-à-go-go-related gene (hERG) potassium channel (Q12809 whole entry, looked up): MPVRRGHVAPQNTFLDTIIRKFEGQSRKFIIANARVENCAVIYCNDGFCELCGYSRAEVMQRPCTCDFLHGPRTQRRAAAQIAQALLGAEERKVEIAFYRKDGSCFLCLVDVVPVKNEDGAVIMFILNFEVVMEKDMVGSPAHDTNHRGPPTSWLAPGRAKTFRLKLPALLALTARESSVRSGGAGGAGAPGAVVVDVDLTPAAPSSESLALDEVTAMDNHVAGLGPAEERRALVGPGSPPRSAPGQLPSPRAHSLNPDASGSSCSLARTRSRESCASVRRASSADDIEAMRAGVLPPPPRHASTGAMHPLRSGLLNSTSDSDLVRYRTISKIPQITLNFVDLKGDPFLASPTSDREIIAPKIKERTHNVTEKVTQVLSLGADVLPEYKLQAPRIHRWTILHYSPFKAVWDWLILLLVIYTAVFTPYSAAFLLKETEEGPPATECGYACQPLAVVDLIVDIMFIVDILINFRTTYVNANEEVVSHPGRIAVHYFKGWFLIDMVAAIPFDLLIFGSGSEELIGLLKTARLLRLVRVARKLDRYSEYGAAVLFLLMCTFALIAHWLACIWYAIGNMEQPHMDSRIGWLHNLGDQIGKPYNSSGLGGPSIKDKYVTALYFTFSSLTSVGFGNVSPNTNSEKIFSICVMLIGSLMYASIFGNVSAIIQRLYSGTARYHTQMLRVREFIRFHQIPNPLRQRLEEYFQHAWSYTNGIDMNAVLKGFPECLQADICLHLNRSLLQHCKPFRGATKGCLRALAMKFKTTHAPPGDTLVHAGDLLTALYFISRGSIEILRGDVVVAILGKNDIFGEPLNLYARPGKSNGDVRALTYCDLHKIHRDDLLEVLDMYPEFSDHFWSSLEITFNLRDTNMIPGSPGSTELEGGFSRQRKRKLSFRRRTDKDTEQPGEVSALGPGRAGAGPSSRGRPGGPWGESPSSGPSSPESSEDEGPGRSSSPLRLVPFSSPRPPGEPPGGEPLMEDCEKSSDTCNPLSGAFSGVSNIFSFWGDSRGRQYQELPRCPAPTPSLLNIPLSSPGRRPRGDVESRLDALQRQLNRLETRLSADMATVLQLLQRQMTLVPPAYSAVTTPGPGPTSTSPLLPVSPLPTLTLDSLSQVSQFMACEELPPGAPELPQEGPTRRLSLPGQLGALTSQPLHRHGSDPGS

First: CCc1ccc(C(=O)NNC(=O)c2cc(S(=O)(=O)N(C)C)ccc2N2CCCC2)cc1
Second: CCC(CC)NC(=O)c1cc(S(=O)(=O)N2CCCCC2)ccc1N1CCOCC1
The “hERG current change (%, negative = inhibition) at 1uM” value of the first is higher: 3.17% for the first, -6.91% for the second.

Going from `CC1CN(C(=O)c2scc3c2OCCO3)CC(C)O1` (stereo not shown) to `CC1CCCN(CCCNC(=O)c2cc3c(s2)-c2ccccc2OC3)C1` (stereo not shown), the “hERG current change (%, negative = inhibition) at 1uM” value falls from 15.6% to -48.5%.

First: CN(Cc1cccs1)C(=O)C1CC(=O)N(Cc2ccccc2)C1 (stereo not shown)
Second: CCNS(=O)(=O)c1ccc(CCC(=O)N2CCN(Cc3ccccc3)CC2)cc1
The “hERG current change (%, negative = inhibition) at 1uM” value of the first is higher: 8.49% for the first, -1.42% for the second.

Compared with `Cc1ccc2nc(SCC(=O)N(CC(C)C)c3c(N)n(Cc4ccccc4)c(=O)[nH]c3=O)[nH]c2c1`, `Cc1c(NS(=O)(=O)c2ccc3nc(COc4ccccc4Cl)[nH]c3c2)c(=O)n(-c2ccccc2)n1C` is higher in “hERG current change (%, negative = inhibition) at 1uM” value: 13.2% for the first, 17% for the second.

Compared with `CCN(CC)c1ccc(O)c(C=Nc2ccc(C)c(C)c2)c1`, `CCOc1cc(/C=N/NC(=O)Cc2ccc(C(F)(F)F)cc2[N+](=O)[O-])ccc1O` is lower in “hERG current change (%, negative = inhibition) at 1uM” value: 10.8% for the first, 3.92% for the second.

Going from `COc1cccc(OCC(O)CN2CCN(CCO)CC2)c1.Cl` (stereo not shown) to `CCOC(=O)N1CCN(CC(O)COc2c(OC)cccc2OC)CC1.Cl` (stereo not shown), the “hERG current change (%, negative = inhibition) at 1uM” value rises from -6.85% to 7.74%.

First: O=C(NCCCNC(=O)c1ccc(Cl)cc1Cl)c1ccccn1
Second: CCOc1ccccc1NC(=O)Cn1c(=O)oc2cc(Cl)ccc21
The “hERG current change (%, negative = inhibition) at 1uM” value of the first is lower: 10.9% for the first, 14.8% for the second.

First: COc1ccccc1-n1c(SCC(=O)c2ccc(O)cc2O)nc2cc([N+](=O)[O-])ccc21
Second: CCN(CC)CCn1c(SCC(=O)Nc2ccc(F)cc2)nc2c(sc3ccccc32)c1=O.Cl
The “hERG current change (%, negative = inhibition) at 1uM” value of the first is higher: 19.1% for the first, 4.95% for the second.

Compared with `CCn1nc(C(=O)OCC(=O)Nc2nc(-c3ccc(OC)cc3)cs2)c2ccccc2c1=O`, `OCCOCCn1c(C(CO)Nc2nc(-c3ccc(F)cc3)cs2)nc2ccccc21` (stereo not shown) is lower in “hERG current change (%, negative = inhibition) at 1uM” value: 15.7% for the first, -3.44% for the second.

Going from `CC(C)CC(=O)Nc1ncnc2c1C(=O)CC(C)(C)C2` to `COC(=O)c1ccccc1NC(=O)CSc1nc(C)cc(C)n1`, the “hERG current change (%, negative = inhibition) at 1uM” value rises from 9.63% to 10.5%.

First: Cc1ccc(NS(=O)(=O)c2ccc3[nH]c(=O)oc3c2)cc1Cl
Second: COc1ccc(S(=O)(=O)Nc2ccc3cn[nH]c3c2)cc1[N+](=O)[O-]
The “hERG current change (%, negative = inhibition) at 1uM” value of the first is higher: 8.36% for the first, 7.09% for the second.

First: COc1ccc2oc(C(=O)N(C)CCOc3ccc(Cl)cc3)c(C)c2c1
Second: CCOC(=O)C1=C(CNCCOc2ccc(OC)cc2)NC(=O)NC1c1ccc2c(c1)OCO2 (stereo not shown)
The “hERG current change (%, negative = inhibition) at 1uM” value of the first is lower: -7.18% for the first, 8.12% for the second.

First: CCOC(=O)c1cncc(C(=O)O)c1
Second: CCOC(=O)N1CCN(C(=O)CNC(=O)Cn2cnc3ccccc3c2=O)CC1
The “hERG current change (%, negative = inhibition) at 1uM” value of the first is lower: 11.9% for the first, 14% for the second.

First: Cl.O=C(NCCCN1CCOCC1)c1c(O)c2ccccc2[nH]c1=O
Second: O=c1[nH]c2ccccc2nc1N1CCOCC1
The “hERG current change (%, negative = inhibition) at 1uM” value of the first is lower: -12.5% for the first, -6.49% for the second.

Compared with `CCCn1c2ccc(C)cc2c2n[nH]c(=S)nc21`, `Cc1ccc(C)c(C(=O)CSc2nnnn2-c2cccnc2)c1` is lower in “hERG current change (%, negative = inhibition) at 1uM” value: 15.3% for the first, 6.31% for the second.

Going from `Cc1ccc(S(=O)(=O)c2cc3ccccc3oc2=O)cc1` to `Cc1ccc(NC(=O)c2cc(-c3ccco3)on2)cc1`, the “hERG current change (%, negative = inhibition) at 1uM” value falls from 8.8% to 0.76%.

First: COc1ccc(NC(=O)Nc2ccc(N3CCCC3=O)cc2)cc1OC
Second: COc1ccc(/C=N\N=C2/SC(CC(=O)O)C(=O)N2c2ccc(O)cc2)cc1OC (stereo not shown)
The “hERG current change (%, negative = inhibition) at 1uM” value of the first is higher: 7.67% for the first, -0.926% for the second.

First: CC(=O)Oc1ccc(C(=O)Nc2cc(C)ccc2NC(=O)COc2ccccc2)cc1
Second: CC(=O)Nc1ccc(C(=O)NNC(=O)Cc2ccccc2)cc1
The “hERG current change (%, negative = inhibition) at 1uM” value of the first is lower: 15.2% for the first, 16.5% for the second.

Compared with `Cc1ccc(-n2c(N)c(C(=O)N3CCN(C)CC3)sc2=S)cc1`, `CCOC(=O)N1CCN(C(=O)c2cnc(Nc3ccccc3OC)c3ccccc23)CC1` is higher in “hERG current change (%, negative = inhibition) at 1uM” value: -13.5% for the first, 0.401% for the second.

Going from `CCc1cc2c(NCCC(=O)O)nc(C)nc2s1` to `CCC(Sc1nc2ccccc2s1)C(=O)Nc1nnc(C)s1` (stereo not shown), the “hERG current change (%, negative = inhibition) at 1uM” value falls from 17.4% to 6.35%.

First: CCOc1ccccc1N1CCN(C(=S)NCc2ccco2)CC1
Second: CCOc1ccc(S(=O)(=O)N2CCCCC2)c2ccccc12
The “hERG current change (%, negative = inhibition) at 1uM” value of the first is lower: -4.45% for the first, 9.79% for the second.

Going from `COc1ccc(C(OC(=O)c2c(C)noc2C)C(=O)NC2CCCC2)cc1` (stereo not shown) to `COc1cc(C(=O)NCC2CCCO2)ccc1OCc1c(C)noc1C` (stereo not shown), the “hERG current change (%, negative = inhibition) at 1uM” value rises from 3.91% to 12.5%.

Going from `C/C(=N\Nc1ccc(Cl)c(Cl)c1)c1ccc(-n2ccnc2)cc1` to `CS(=O)(=O)Nc1ccc(C(=O)Nc2ccccc2Sc2ccccc2)cc1`, the “hERG current change (%, negative = inhibition) at 1uM” value falls from 10.1% to -6.59%.

Going from `COc1cc(C(c2c(C)[nH][nH]c2=O)c2c(C)[nH][nH]c2=O)cc(OC)c1OC` to `COc1cccc(C(=O)NCCS(=O)(=O)NCCc2ccc(OC)c(OC)c2)c1`, the “hERG current change (%, negative = inhibition) at 1uM” value falls from 9.75% to 7.37%.

First: Cc1nc(CS(=O)(=O)c2ccccc2)cc(N2CCOCC2)n1
Second: CC1CN(S(=O)(=O)c2ccc(F)cc2)CN1C(=O)N1CCOCC1 (stereo not shown)
The “hERG current change (%, negative = inhibition) at 1uM” value of the first is lower: 1.81% for the first, 13.8% for the second.

Compared with `COc1ccc(C(=O)NCc2ccon2)cc1OC1CCN(C(C)C)CC1`, `COc1cccc(CNC(=O)[C@H](C)NC(=O)C2CCN(S(=O)(=O)c3ccccc3)CC2)c1` is higher in “hERG current change (%, negative = inhibition) at 1uM” value: 3.39% for the first, 10.6% for the second.

First: CC(/C=C/c1ccccc1)=N\NC(=O)C1CC1(C)c1ccccc1 (stereo not shown)
Second: O=C(NCC(c1ccco1)N1CCc2ccccc21)C(=O)Nc1ccccc1 (stereo not shown)
The “hERG current change (%, negative = inhibition) at 1uM” value of the first is lower: -0.841% for the first, 7.36% for the second.

First: CC(NC(=S)Nc1ccc(Cl)cc1Cl)C(c1cccs1)N1CCCC1 (stereo not shown)
Second: CCCCCNC(=O)C(C#N)c1nc2ccccc2nc1N1CCCC1 (stereo not shown)
The “hERG current change (%, negative = inhibition) at 1uM” value of the first is lower: 0.936% for the first, 14.8% for the second.

Compared with `COc1cc2c(cc1OC)C(c1ccc([N+](=O)[O-])cc1)NCC2` (stereo not shown), `COc1ccc(CC(=O)NC2CC(C)(C)NC(C)(C)C2)cc1OC.Cl` is lower in “hERG current change (%, negative = inhibition) at 1uM” value: 15.3% for the first, 12% for the second.

Compared with `CC(O)Cn1c(N2CCCC2)nc2c1c(=O)n(C)c(=O)n2C` (stereo not shown), `CN1CCc2c(C#N)c(N3CCCCC3)nc(NCc3ccccc3)c2C1` is higher in “hERG current change (%, negative = inhibition) at 1uM” value: 13.2% for the first, 15.1% for the second.

Going from `COc1ccccc1/C=C/C=N/NC(=O)c1ccncc1` to `COc1cc2c(cc1NC(=S)NC(=O)/C=C/c1ccco1)oc1ccccc12`, the “hERG current change (%, negative = inhibition) at 1uM” value rises from 5.96% to 8.27%.

Going from `CCN(CC(=O)NCc1cccs1)C(=O)/C=C/c1ccc(C)cc1` to `CC(C(=O)O)c1ccc(C(=O)c2cccs2)cc1` (stereo not shown), the “hERG current change (%, negative = inhibition) at 1uM” value rises from 0.956% to 1.86%.

First: O=C(NC1CCCN(Cc2ccccc2F)C1)C1CCC1 (stereo not shown)
Second: CC1CCCC(NC(=O)COC(=O)Cc2c[nH]c3ccccc23)C1C (stereo not shown)
The “hERG current change (%, negative = inhibition) at 1uM” value of the first is higher: 16.9% for the first, 5.43% for the second.

First: COc1cccc(NC(=O)CN(C)S(=O)(=O)c2ccc3c(c2)CCC(=O)N3)c1
Second: COc1cccc(C(=O)NC(=S)Nc2ccc3[nH]c(=O)[nH]c3c2)c1
The “hERG current change (%, negative = inhibition) at 1uM” value of the first is higher: -8.52% for the first, -23.7% for the second.

Compared with `Cc1cc(C(=O)Nc2c(C)nn(Cc3ccccc3)c2C)on1`, `CCc1nc(N2CCCCC2C)c2oc3ccccc3c2n1.Cl` (stereo not shown) is higher in “hERG current change (%, negative = inhibition) at 1uM” value: 7.37% for the first, 20.9% for the second.

Going from `C/C(CCc1ccco1)=N\NC(=O)CNc1c(Br)cc(Br)cc1Br` to `O=C1NC(c2cccc(Br)c2)=N/C1=C\c1ccco1`, the “hERG current change (%, negative = inhibition) at 1uM” value falls from 25.3% to 0.597%.

Going from `CC(NC(=O)c1cc2c(s1)CCCC2)C(C)(C)C` (stereo not shown) to `O=C(COC(=O)c1ccc(Br)o1)NC1CCCCC1`, the “hERG current change (%, negative = inhibition) at 1uM” value rises from -2.23% to 9.21%.

Going from `CC1CCCC(C)N1C(=O)Cn1c(SCC(=O)NCc2ccc3c(c2)OCO3)nc2ccccc21` (stereo not shown) to `O=C(CSc1nc(-c2ccccc2)c(-c2ccccc2)[nH]1)Nc1ccc2c(c1)OCO2`, the “hERG current change (%, negative = inhibition) at 1uM” value rises from -11.9% to 9.89%.

First: COc1ccccc1CNC(=O)C1CCC(CNS(=O)(=O)c2cccc3cccnc23)CC1 (stereo not shown)
Second: COc1ccc(/C(C)=N/NC(=O)C2CC2)cc1
The “hERG current change (%, negative = inhibition) at 1uM” value of the first is higher: 14.4% for the first, -9.18% for the second.

Compared with `COc1nc(NC2CCCCC2)nc(N2CCCCCC2)n1`, `Cc1cc(C)cc(NC(=O)C2C3C=CC4(O3)C2C(=O)N(CCCN2CCCC2)C4C(=O)NC2CCCC(C)C2C)c1` (stereo not shown) is lower in “hERG current change (%, negative = inhibition) at 1uM” value: 11.7% for the first, 8.74% for the second.

Compared with `CC(C)(Cc1ccc(O)cc1)NC(=O)CC(=O)N/N=C/c1ccc(Cl)cc1`, `COCCNC(=S)N/N=C/c1ccc(OCc2ccc(C(=O)OC)cc2)cc1` is lower in “hERG current change (%, negative = inhibition) at 1uM” value: 13.4% for the first, 8.3% for the second.

First: C=CCn1c(N)cc(=O)nc1SCC(=O)Nc1ccccc1C(N)=O
Second: Cc1ccc(C(C(=O)NC2CCCC2)N(Cc2ccc(F)cc2)C(=O)c2snc(C(N)=O)c2N)o1 (stereo not shown)
The “hERG current change (%, negative = inhibition) at 1uM” value of the first is higher: 12.4% for the first, 5.56% for the second.

Going from `CC(O)[C@H]1CNC(=O)C(=O)N1CC1(c2ccccc2)CC1` (stereo partly shown) to `CCOc1ccc(N2C(=O)/C(=C\c3cccs3)C(=O)NC2=S)cc1`, the “hERG current change (%, negative = inhibition) at 1uM” value falls from 17.3% to 16.5%.

Compared with `Clc1ccc(-c2c[n+]3c(n2-c2ccccc2)SCC3)cc1.[Cl-]`, `CC1=CC(C)(C)N2C(=O)C3(C(C#N)=C(N)OC4=C3C(=O)CCC4)c3c(C)c(C)cc1c32` (stereo not shown) is higher in “hERG current change (%, negative = inhibition) at 1uM” value: 3.68% for the first, 9.76% for the second.
